PMC12136788
Some of the results follow.

T1: UNK ZnF1-3 (human, UniProt Q9C0B0 31-174)
T1 sequence: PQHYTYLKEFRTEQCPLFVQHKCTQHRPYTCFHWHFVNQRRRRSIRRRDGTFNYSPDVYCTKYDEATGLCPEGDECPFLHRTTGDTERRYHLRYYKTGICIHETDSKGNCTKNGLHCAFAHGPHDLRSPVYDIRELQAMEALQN

B1: chr3:120123814:120123815:-_ENSG00000163430_ENST00000295633|hu_hu|FALSE|FALSE (ssRNA)
RNA: GGGAGUUCUACAGUCCGACGAUCCUGUUCCACAAACUUCAGGAAUUCACUGGAGUCCAGGCGAGAAUCACCAUUAUCAAAGUUCUUAAAAUACUUGUCUAGGAUUUCACUGUAGUUGCUGCCUUUAGAGAACCAGCCAUCUGGCAACAGAGGAUUGAGCAUCA
B2: chr2:166753246:166753247:+_ENSMUSG00000002718_ENSMUST00000002790|mus_mus|FALSE|FALSE (ssRNA)
RNA: GGGAGUUCUACAGUCCGACGAUCAAACAGAUUCUUAUAAUGUGGCCUUUCACAAACUGAAGCCAGAAACUGAAUUGCAUUGCUAACCAACAAGUCAUAUUUAACUUCUCGCCCUGUUGUAACGAGUAAGUUCCAGAUAGCUGUCAACAGAGGAUUGAGCAUCA
B3: 32528459_32528579_1835_CDS_ENSMUSG00000014496_ENSMUST00000014640|mouse|control|control (ssRNA)
RNA: GGGAGUUCUACAGUCCGACGAUCUACGAGGAUUGAAGCUCCCUGAUUAAUGAGUACAUCCACACAUUCAACAUGGCCCUUAAAGGCUGCAAGAUCUAAGGGUGUUCUACCACUACUAUUUCUUACAUCAAGAUCUAACAAAGACAACAGAGGAUUGAGCAUCA
B4: chr2:198266515:198266516:-_ENSG00000115524_ENST00000335508|hu_hu|FALSE|FALSE (ssRNA)
RNA: GGGAGUUCUACAGUCCGACGAUCUUUCAUUUCCUCAUCAGGAGACUGGAAUUCUCGAAUAAGGAUUAACAUCACUUCUCUAGUAUAGUAGUUGGCAUAUUCUGCAUCCAUAAGAGGAAUAAGAUACCCAAUAGCCUUCAAGAACAACAGAGGAUUGAGCAUCA
B5: chrX:132781199:132781200:+_ENSMUSG00000042712_ENSMUST00000048687|mus_mus|motif|central (ssRNA)
RNA: GGGAGUUCUACAGUCCGACGAUCAUGAAAAGAAAGCUAGAUCGCAAUGGUAACAUCAGAUAAAAGGGAAAGCAAGCCAAGCGGCAUUAAAUAGGGGUAAGGAUGGCUUCGGUUAGCCUUCCAACGCGUCACUAUAAGUUUGUUCAACAGAGGAUUGAGCAUCA
B6: chr7:141438946:141438947:+_ENSG00000106028_ENST00000265304|hu_mus|hu_hu_hu_mus_True|8_28 (ssRNA)
RNA: GGGAGUUCUACAGUCCGACGAUCGACGAAAUACCUGUAACACAGGUCUUCGAAACAUGGCUUCUGUUUUUCUUACAACCUAAUCUUUAGGCUUUUCCUAAAGGAAAAACCCGAGCAAGAAAAAUGAGCAGGGGAUCAACUACACAACAGAGGAUUGAGCAUCA
B7: chr13:36245089:36245090:+_ENSG00000172915_ENST00000537702|perfect_dup|FALSE|FALSE (ssRNA)
RNA: GGGAGUUCUACAGUCCGACGAUCGUUCUUCCUUUAUCUUCAGUAUCUGUUCUGAUGCUCAUAAUGCCACCGAUUAAAAUCUAUAUUAAAAGCUACAAUGCUACCAGAAGCCAUGCCAGUGAUCAGAGUCCUCUGGUCAUGGGACAACAGAGGAUUGAGCAUCA
B8: chr1:45478652:45478653:+_ENSG00000126088_ENST00000246337|hu_hu|motif|central (ssRNA)
RNA: GGGAGUUCUACAGUCCGACGAUCGCAGGCCUCAGGAGAGCGACACGUGCUGAAAAAGUCCUGGGCAGCCCGGGUUUCCCGGAACUCUGGUAAGUAACGGCCUGCCUGGCGCAUGCACCAAACGGGAGUGUAGUCUGUUUCCUCCAACAGAGGAUUGAGCAUCA
B9: chr6:72301320:72301321:+_ENSMUSG00000058706_ENSMUST00000077783|mus_hu|FALSE|FALSE (ssRNA)
RNA: GGGAGUUCUACAGUCCGACGAUCUAGCCAGGACGGUCUGGAUCUCCUGAUUUCAUGAUCCGCCCGCCUCGGCCUCCCUACCUCUUCCUUUACUUAAUAAGAAUGCGGUCUAAAUUUUCAGGUGCCAAGCCCCCAAACUCCUCUCAACAGAGGAUUGAGCAUCA
B10: chr3:108421708:108421709:+_ENSMUSG00000040389_ENSMUST00000051145|mus_hu|FALSE|FALSE (ssRNA)
RNA: GGGAGUUCUACAGUCCGACGAUCGCCAAGAAGCACUUCGCUUUCUGUAAUUUCUUCUCCAGUUGCUUUACUCUGACAAAAUUCUACACAGCAUUCAUAAAGCAGGCCUUUCAUUACAAGCUGAAAUAAACGAUUGUUACUAGCCAACAGAGGAUUGAGCAUCA
B11: chr2:48026839:48026840:+_ENSG00000116062_ENST00000540021|hu_hu|hu_hu_hu_mus_False|78_98 (ssRNA)
RNA: GGGAGUUCUACAGUCCGACGAUCAUAGUGAGCCACUAGAGUCCUAAAUCUGGAACAAUGGCGAUCAUCCGAAAACUGGCCGAUGAAAAACUUGCCCAGUGAAGUGUCCACAAAGCAAACACCAUACACACGAGUGUGACCAGACAACAGAGGAUUGAGCAUCA
B12: chr6:110421769:110421770:-_ENSG00000112290_ENST00000392587|hu_hu|motif|central (ssRNA)
RNA: GGGAGUUCUACAGUCCGACGAUCUUUUUCUUACUCCAACCAAUCUACUUCAUCAAAUUCUGAAUCAUCUUCCGAAUCACGGUAUUCAACAGCAAUACGGCGAGACAGGAUGGUGGCAACAUCGUUUUCAAUGCGUUCAUGCUUCAACAGAGGAUUGAGCAUCA
B13: 27865549_27865761_3985_CDS_ENSMUSG00000026837_ENSMUST00000028280|mouse|control|control (ssRNA)
RNA: GGGAGUUCUACAGUCCGACGAUCUCUUGAACCUUCAUCUCCUUUCUGCCCAAACAGGCCCUGCUGUCCACGAGGGCCAGGUUCACCAUCUGCUCCCGAAGGGCCUGGCUGUCCAAUCGGGCCUUGAGGACCGGUAGGCCCAGGCAACAGAGGAUUGAGCAUCA
B14: chr12:48362563:48362564:+_ENSG00000134291_ENST00000256686|hu_hu|hu_hu_hu_mus_False|58_108 (ssRNA)
RNA: GGGAGUUCUACAGUCCGACGAUCUCCGAAGGGUGAAUCGAUAGACCCUUGCGGGGGAAACUGUAAUCACUUUGUAUUUCUAAAAAAAAGAAACGCCAAAAACUUUCCAAAAAGCGGGGGUGGGGUGAGGCGGGAGGGGGAGGUCAACAGAGGAUUGAGCAUCA

Each binder was assayed against T1, UNK ZnF1-3 (assay: nsRBNS (natural sequence RNA bind-n-seq); RBNS binding buffer (assumed for nsRBNS): 25 mM Tris pH 7.5, 150 mM KCl, 3 mM MgCl2, 0.01% Triton X-100, 500 ug/ml BSA, 20 U/ml SUPERase-In, 4 C; UNK is unkempt and MSI1 is Musashi-1; names of the RNAs are library labels; protein concentration not given here; high values mean tight binding).
Binder B1 has a binding signal of 1.74 enrichment R. For B2, the binding signal was 0.921 enrichment R. With B3 the binding signal was 0.681 enrichment R. B4 was tested, and the binding signal was 0.959 enrichment R. Work on B5 yielded a binding signal of 1.28 enrichment R. With B6 the binding signal was 0.475 enrichment R. For B7, the binding signal was 1.28 enrichment R. Binder B8 has a binding signal of 1.21 enrichment R. B9 was tested, and the binding signal was 0.767 enrichment R. In the case of B10, the binding signal is reported as 1.22 enrichment R. B11 gave a binding signal of 1.34 enrichment R. B12 showed a binding signal of 0.834 enrichment R. In the case of B13, the binding signal is reported as 0.789 enrichment R. B14 showed a binding signal of 2.08 enrichment R.
